Measured values as given in a compilation of properties of binary mixtures (doi:10.1021/je401124t).
The densities may have been worked out from excess volumes.

Experiment: xn = mol fraction of the nth substance listed
Settings: 101 kPa

COP(=O)([O-])OC.Cn1cc[n+](C)c1 + CCCO
mass density [kg/m3]
Settings | x2 = 0 | x2 = 0.098 | x2 = 0.1993 | x2 = 0.3018 | x2 = 0.4 | x2 = 0.5002 | x2 = 0.5996 | x2 = 0.6995 | x2 = 0.799 | x2 = 0.8998
293.15 K | 1264.9 | 1244.7 | 1222 | – | 1166.1 | 1131 | 1090.1 | 1040.5 | 980.4 | 904.2
298.15 K | – | 1241.2 | 1218.6 | 1192 | 1162.6 | 1127.4 | 1086.5 | 1036.8 | 976.7 | 900.4
303.15 K | 1257.8 | 1237.8 | – | 1188.5 | 1159.1 | – | – | 1033.1 | 973 | 896.6
308.15 K | 1254.4 | 1234.4 | – | 1185 | 1155.5 | 1120.3 | 1079.2 | 1029.5 | 969.2 | 892.7
313.15 K | 1251 | 1230.9 | 1208.2 | 1181.5 | 1152 | 1116.7 | – | 1025.8 | 965.5 | 888.9
318.15 K | 1247.6 | – | 1204.7 | 1178 | – | – | 1072 | 1022.1 | 961.7 | 885
323.15 K | 1244.2 | 1224 | 1201.2 | – | 1144.9 | 1109.6 | – | 1018.5 | – | 881.1

COP(=O)([O-])OC.Cn1cc[n+](C)c1 + CO
mass density [kg/m3]
Settings | x2 = 0 | x2 = 0.1054 | x2 = 0.2009 | x2 = 0.2977 | x2 = 0.3984 | x2 = 0.5028 | x2 = 0.6018 | x2 = 0.7027 | x2 = 0.8002 | x2 = 0.8998
293.15 K | 1264.9 | 1254.1 | 1242.7 | 1228.6 | 1210.9 | 1187.2 | – | 1118.1 | 1062 | –
298.15 K | – | 1250.6 | 1239.2 | – | – | 1183.6 | 1154.2 | 1114.3 | 1058.1 | 960.6
303.15 K | 1257.8 | 1247.1 | – | 1221.6 | 1203.7 | – | 1150.5 | 1110.5 | 1054.1 | 956.4
308.15 K | 1254.4 | 1243.7 | 1232.2 | 1218.1 | 1200.2 | – | 1146.8 | 1106.7 | 1050.2 | 952.3
313.15 K | 1251 | 1240.2 | 1228.7 | 1214.5 | 1196.6 | 1172.8 | 1143.1 | 1103 | 1046.3 | 948.1
318.15 K | 1247.6 | – | 1225.2 | 1211 | 1193.1 | 1169.2 | 1139.5 | – | 1042.5 | 944
323.15 K | 1244.2 | 1233.3 | 1221.8 | – | 1189.5 | – | 1135.8 | 1095.5 | 1038.6 | 939.9

CC(C)O + COP(=O)([O-])OC.Cn1cc[n+](C)c1
x1 = 1
Settings | mass density [kg/m3]
293.15 K | 785.3
298.15 K | 781.1
303.15 K | 776.8
308.15 K | 772.4
313.15 K | 768
318.15 K | 763.5
323.15 K | 758.9

COP(=O)([O-])OC.Cn1cc[n+](C)c1 + CCO
mass density [kg/m3]
Settings | x2 = 0 | x2 = 0.0999 | x2 = 0.2028 | x2 = 0.3009 | x2 = 0.4074 | x2 = 0.5028 | x2 = 0.6 | x2 = 0.6992 | x2 = 0.7999 | x2 = 0.9
293.15 K | 1264.9 | 1249.8 | 1230 | 1208.8 | 1181.8 | – | – | 1068.2 | – | –
298.15 K | 1261.3 | 1246.2 | 1226.6 | 1205.2 | – | 1148.5 | – | 1064.5 | – | 915.2
303.15 K | 1257.8 | – | 1223.1 | 1201.7 | 1174.7 | 1144.8 | 1108.3 | 1060.8 | – | 911.1
308.15 K | 1254.4 | 1239.4 | 1219.7 | 1198.2 | 1171.2 | – | 1104.7 | – | 993.3 | 907.1
313.15 K | 1251 | 1235.9 | 1216.2 | 1194.7 | 1167.7 | 1137.7 | 1101 | 1053.4 | 989.5 | 903.1
318.15 K | – | 1232.5 | 1212.8 | 1191.2 | 1164.2 | 1134.2 | 1097.5 | 1049.7 | – | 899.1
323.15 K | 1244.2 | – | 1209.3 | 1187.8 | 1160.7 | 1130.7 | 1093.8 | 1046 | 982 | –

CO + COP(=O)([O-])OC.Cn1cc[n+](C)c1
x1 = 1
Settings | mass density [kg/m3]
293.15 K | 792.1
298.15 K | 787.4
308.15 K | 777.9
313.15 K | 773.1
323.15 K | 763.5

CCO + COP(=O)([O-])OC.Cn1cc[n+](C)c1
x1 = 1
Settings | mass density [kg/m3]
293.15 K | 789.9
298.15 K | 785.6
303.15 K | 782.2
308.15 K | 777.8
313.15 K | 773.4
318.15 K | 769
323.15 K | 764.5

CCCO + COP(=O)([O-])OC.Cn1cc[n+](C)c1
x1 = 1
Settings | mass density [kg/m3]
293.15 K | 803.6
298.15 K | 799.7
303.15 K | 795.9
308.15 K | 791.8
313.15 K | 787.7
318.15 K | 783.6
323.15 K | 779.4

COP(=O)([O-])OC.Cn1cc[n+](C)c1 + CC(C)O
mass density [kg/m3]
Settings | x2 = 0 | x2 = 0.0999 | x2 = 0.2032 | x2 = 0.301 | x2 = 0.402 | x2 = 0.5002 | x2 = 0.6 | x2 = 0.7009 | x2 = 0.7997 | x2 = 0.9013
293.15 K | – | – | 1219.1 | 1192.6 | 1160.5 | 1124.7 | 1081.3 | 1028.9 | 966.9 | 888.4
298.15 K | 1261.3 | 1240.2 | – | 1189.1 | 1157 | – | 1077.8 | – | 963.2 | 884.5
303.15 K | 1257.8 | 1236.8 | 1212.3 | 1185.6 | 1153.5 | – | 1074.2 | 1021.7 | 959.4 | 880.6
308.15 K | 1254.4 | 1233.4 | 1208.8 | 1182.2 | 1150.1 | 1114 | 1070.6 | – | 955.6 | –
313.15 K | – | – | – | – | 1146.6 | 1110.5 | 1067 | 1014.4 | 951.9 | 872.7
318.15 K | 1247.6 | 1226.6 | – | 1175.2 | 1143 | – | 1063.4 | – | 948.1 | 868.6
323.15 K | 1244.2 | 1223.2 | 1198.6 | 1171.8 | 1139.6 | – | 1059.8 | 1006.9 | 944.3 | –
